Reference: PubChem BioAssay (NCI)
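All cell lines were grown in 96-well plates and treated with compound for 48 hours. The concentration for 50% growth inhibition is given as GI50.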 A number of entries come with more than one value. This is not the full list of results. The source may hold further records. For some assays here: Records of one sample usually come from different ranges of test concentrations, not given here; some values may only mark the edge of a range. For some assays here: Values that stand side by side are repeats in other runs, samples, wells, individuals or studies. What stands in brackets tells the records apart. Letters hold for one entry only.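 TGI is the concentration that stops growth completely.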

Assays:
Experiment in all cases: growth of human tumour cells (NCI), 48 h
RPMI-8226 leukemia = tested on: RPMI-8226 leukemia
UACC-257 melanoma = tested on: UACC-257 melanoma
HS 578T breast = tested on: HS 578T breast
SR leukemia = tested on: SR leukemia
K-562 leukemia = tested on: K-562 leukemia
MOLT-4 leukemia = tested on: MOLT-4 leukemia
T-47D breast = tested on: T-47D breast
NCI-H460 lung = tested on: NCI-H460 lung
DMS 273 small cell lung = tested on: DMS 273 small cell lung
SK-OV-3 ovarian = tested on: SK-OV-3 ovarian
XF 498 CNS = tested on: XF 498 CNS
RXF 393 renal = tested on: RXF 393 renal
SF-539 CNS = tested on: SF-539 CNS
SK-MEL-28 melanoma = tested on: SK-MEL-28 melanoma
OVCAR-4 ovarian = tested on: OVCAR-4 ovarian
KM12 colon = tested on: KM12 colon
OVCAR-3 ovarian = tested on: OVCAR-3 ovarian
MALME-3M melanoma = tested on: MALME-3M melanoma
NCI-H522 lung = tested on: NCI-H522 lung
UACC-62 melanoma = tested on: UACC-62 melanoma
NCI-H23 lung = tested on: NCI-H23 lung
CAKI-1 renal = tested on: CAKI-1 renal
SK-MEL-5 melanoma = tested on: SK-MEL-5 melanoma
CCRF-CEM leukemia = tested on: CCRF-CEM leukemia
UO-31 renal = tested on: UO-31 renal
SW-620 colon = tested on: SW-620 colon
NCI/ADR-RES ovarian = tested on: NCI/ADR-RES ovarian
SNB-19 CNS = tested on: SNB-19 CNS

S=C(N/N=C(/c1ccccc1)c1ccccn1)Nc1cccc(Cl)c1
TGI (RPMI-8226 leukemia): 107 nM and > 100 µM | TGI (UACC-257 melanoma): 27.2 nM and 3.86 µM | TGI (HS 578T breast): 63.1 nM and 21.1 µM | TGI (SR leukemia): 1.67 µM and > 100 µM | GI50 (K-562 leukemia): < 1 nM and 38.8 nM | TGI (K-562 leukemia): 23.4 nM and 14.1 µM | TGI (MOLT-4 leukemia): 71.7 nM and > 100 µM | TGI (T-47D breast): 675 nM and 14.3 µM

COc1cc([C@@H]2c3cc4c(c(O)c3C[C@H]3COC(=O)[C@@H]32)OCO4)cc(OC)c1O
GI50 (NCI-H460 lung): 3.06 nM [1 test] and 768 nM [mean of 2 tests] | TGI (NCI-H460 lung): 8.15 nM [1 test] and > 105 µM [mean of 2 tests] | TGI (DMS 273 small cell lung): 5.64 nM and > 200 µM | GI50 (SK-OV-3 ovarian): 2.94 nM and > 200 µM | TGI (SK-OV-3 ovarian): 9.02 nM and > 200 µM | GI50 (XF 498 CNS): 6.53 nM [1 test] and 439 nM [mean of 3 tests] | TGI (RXF 393 renal): 6.38 nM and 4.33 µM | GI50 (SF-539 CNS): 1.57 nM [1 test] and 46.8 nM [mean of 3 tests] | TGI (SF-539 CNS): 4.1 nM [1 test] and 61 nM [mean of 3 tests] | GI50 (SK-MEL-28 melanoma): 4.73 nM [1 test] and 148 nM [mean of 3 tests] | GI50 (OVCAR-4 ovarian): 5.89 nM [1 test] and 659 nM [mean of 2 tests] | GI50 (KM12 colon): 3.94 nM [1 test] and 45.5 nM [mean of 3 tests] | GI50 (OVCAR-3 ovarian): 2.07 nM [1 test] and > 63.2 µM [mean of 2 tests] | TGI (OVCAR-3 ovarian): 4.67 nM [1 test] and > 63.2 µM [mean of 2 tests] | TGI (MALME-3M melanoma): 5.16 nM and > 32.1 µM | GI50 (NCI-H522 lung): 0.126 nM [1 test] and 235 nM [mean of 3 tests] | TGI (NCI-H522 lung): 0.713 nM [1 test] and 299 nM [mean of 3 tests]

CC(=O)OCC1OC(n2c(-c3ccccc3)c(C)c(C)c(C#N)c2=S)C(OC(C)=O)C(OC(C)=O)C1OC(C)=O (stereo not given)
GI50 (UACC-62 melanoma): > 50 µM [sample A, 1 test] and 942 nM [sample B, 1 test]

NC[C@@](O)(c1ccc(Cl)cc1)c1ccc(-c2cn[nH]c2)cc1
GI50 (NCI-H23 lung): > 100 µM [sample A, 1 test] and 5.46 µM [sample B, 1 test] | TGI (CAKI-1 renal): > 100 µM [sample A, 1 test] and 2.86 µM [sample B, 1 test] | GI50 (SK-MEL-5 melanoma): > 100 µM [sample A, 1 test] and 3.63 µM [sample B, 1 test] | TGI (HS 578T breast): > 100 µM [sample A, 1 test] and 1.47 µM [sample B, 1 test] | TGI (CCRF-CEM leukemia): > 100 µM [sample A, 1 test] and 3.79 µM [sample B, 1 test] | TGI (UO-31 renal): > 27.7 µM [sample A, mean of 2 tests] and 2.38 µM [sample B, 1 test] | TGI (SW-620 colon): > 100 µM [sample A, 1 test] and 4.88 µM [sample B, 1 test] | TGI (NCI/ADR-RES ovarian): > 100 µM [sample A, mean of 2 tests] and 5.81 µM [sample B, 1 test] | TGI (SNB-19 CNS): > 100 µM [sample A, 1 test] and 6.41 µM [sample B, 1 test]
